Reference: patent US20230094463A1, “ANTIBODIES THAT DISRUPT THE INTERACTION OF GAL3 AND INSULIN RECEPTOR OR INTEGRINS AND METHODS OF USE THEREOF” (TrueBinding, Inc., priority 2019, published 2023)
Entries after “also recorded” stand apart in the source; their conditions may differ.

B1: 9H2.2H1: anti-Gal3 monoclonal antibody (antibody)
heavy: QVQLQQPGAELVGPGSSVKLSCKASGYTFTNYWIHWVKQRPLQGLEWIGNIDPSDSETHYNQKFKDKATLTVDKSSSTAYMQLSSLTSEDSAVYYCARHGYYDYWGQGTTLTVSSASTKGPSVFPLAPCSRSTSESTAALGCLVKDYFPEPVTVSWNSGALTSGVHTFPAVLQSSGLYSLSSVVTVPSSSLGTKTYTCNVDHKPSNTKVDKRV[human IgG4 Fc with S228P (EU numbers) not spelt out]
light: DIVMTQSHKFMSTSVGDRVSITCKASQDVSTAVAWYQQKPGQSPKLLIYWASTRHTGVPDRFTGSGSGTDYTLTISSVQAEDLALYYCQQHYTTPLTFGAGTKLELKRTVAAPSVFIFPPSDEQLKSGTASVVCLLNNFYPREAKVQWKVDNALQSGNSQESVTEQDSKDSTYSLSSTLTLSKADYEKHKVYACEVTHQGLSSPVTKSFNRGEC
B2: 6B3.2D3: anti-Gal3 antibody (antibody)
heavy: QVQLKQSGPGLVQPSQSLSITCTVSGFSLTSYGVHWVRQPPGKGLEWLGVIWSGGSTDYNAAFISRLSISKDNSKSQVFFKMNSLQADDTAIYYCAKGPYDYDLGWFAYWGQGTLVTVSAASTKGPSVFPLAPCSRSTSESTAALGCLVKDYFPEPVTVSWNSGALTSGVHTFPAVLQSSGLYSLSSVVTVPSSSLGTKTYTCNVDHKPSNTKVDKRV[human IgG4 Fc with S228P (EU numbers) not spelt out]
light: SIVMTQTPKFLLVSAGDRVTITCKASQSVSNDVAWYQQKPGQSPKLLIYYASNRYTGVPDRFTGSGYGTDFTFTISTVQAEDLAVYFCQQDYTSPYTFGGGTKLEIKRTVAAPSVFIFPPSDEQLKSGTASVVCLLNNFYPREAKVQWKVDNALQSGNSQESVTEQDSKDSTYSLSSTLTLSKADYEKHKVYACEVTHQGLSSPVTKSFNRGEC

Key:
Galectin-3 = Galectin-3 (Homo sapiens, UniProt P17931); assay: SPR (BiacoreT200) affinity of monoclonal Gal3 antibodies to Gal3; format: binding; conditions: 25° C., 1:1 interaction model
Experimental: To evaluate whether the ability to block Gal3 assembly with INSR was a function of antibody affinity to Gal3, the affinity of monoclonal Gal3 antibodies to Gal3 was evaluated by SPR. Kinetics experiments were performed on BiacoreT200 at 25° C. in high performance mode. Ligand proteins, purified antibodies were captured onto a CM5 chip coupled with anti-human Fc or anti-mouse Fc antibody, three antibodies at a time onto flow cell #2, 3, and 4, respectively, while flow cell #1 was used as reference. The analyte Galectin-3 in HBS-EP buffer was injected over all four flow cells at concentrations of 100, 50, 25, 12.5, 6.25, 3.125 and 0 nM at a flow rate of 30 μL/min. The complex was allowed to associate and dissociate for 240 and 300 seconds, respectively. The surfaces were regenerated with a 30 second injection of 10 mM Glycine pH 1.7 (flow rate 30 μL/min). The data were fit to a simple 1:1 interaction model using the global data analysis option available within BiacoreT200 Evaluation software V2.0.

[1] = target: T1, interaction of Gal3 and INSR (Homo sapiens, UniProt P17931); assay: ELISA of blocking of Gal3-INSR association by Gal3-binding antibodies
T1 construct: 6-histidine tag (linker-spaced); purchased Acro Biosystems (Gal3); Sino Biological (INSR) GA3-H5129; 11086-H08H
Experimental: Positively scoring wells were evaluated for the ability to block association of Gal3 and INSR. To identify Gal3-targeted antibodies with the ability to block the interaction of Gal3 and INSR, purified Gal3 and INSR proteins were incubated in the presence of Gal3-immunization hybridoma supernatants described above, or without antibody, and protein interaction was evaluated by ELISA. Human Galectin-3 protein (Acro Biosystems, GA3-H5129) was diluted in PBS (Corning, 21-030-CM) to a concentration of 3 μg/ml and added to the wells of a 96-well ELISA plate (Thermo Fisher, 44-2404-21). After incubating the plate at 4° C. overnight, the plate was washed three times with PBST (PBS with 0.05% Tween 20 [VWR, 0777]). The plate was then blocked for an hour with 2% BSA (EMD Millipore, 126609) in PBST at room temperature with gentle rocking. Thereafter, the 2% BSA in PBST was discarded and antibody or inhibitor (3-fold dilutions beginning at 20 μg/ml, 60 μg/ml, or 180 μM) in 2% BSA in PBST was added to the wells. Afterwards, 6 μg/ml of human Insulin Receptor (Sino Biological, 11086-H08H) in 2% BSA in PBST was added to the antibody or inhibitor in the wells in a 1:1 ratio. The plate was incubated for an hour at room temperature with gentle rocking. […] The reaction was stopped with 1M HCl (JT Baker, 5620-02) and read using a plate reader (Molecular Devices) at absorbance of 450 nm.

[2] = target: T2, interaction of GAL3 and ITGb1 (Homo sapiens, UniProt P17931); assay: ELISA of blocking of the GAL3-ITGb1 interaction; format: binding; conditions: antibodies added at 20, 6.6, or 2.2 μg/ml
T2 construct: Sino Biological (ITGb1, purchased) QCB200352; 10587-H08H1
Experimental: To identify GAL3-targeted antibodies with the ability to block the interaction of GAL3 and ITGb1, purified GAL3 and ITGb1 were incubated in the presence (or absence) of various GAL3-targeted or control antibodies, or without antibody, and protein interaction was evaluated by ELISA.
Human GAL3 (TrueBinding, QCB200352) was diluted in PBS (Corning, 21-030-CM) to a concentration of 4 μg/ml and added to the wells of a 96-well ELISA plate (Thermo Fisher, 44-2404-21). After incubating the plate at 4° C. overnight, the plate was washed three times with PBST (PBS with 0.05% Tween 20 [VWR, 0777]) and then blocked for an hour with 2% BSA (EMD Millipore, 126609) in PBST at room temperature with gentle rocking. Recombinant human ITGb1 (Sino Biological, 10587-H08H1) was biotinylated with EZ Link Sulfo-NHS-LC-Biotin (ThermoFisher Scientific, A39257) and desalted using a Zeba Spin Desalting Column (ThermoFisher Scientific, 89882), following the manufacturer's instructions. […] The reaction was stopped with 1M HCl (JT Baker, 5620-02) and read using a plate reader (Molecular Devices) at absorbance of 450 nm. Percent blockade of the GAL3-ITGb1 interaction was calculated as the fraction of signal obtained in the absence of antibody with the background signal subtracted.

T2 sequence (P17931 2-250 limits assumed): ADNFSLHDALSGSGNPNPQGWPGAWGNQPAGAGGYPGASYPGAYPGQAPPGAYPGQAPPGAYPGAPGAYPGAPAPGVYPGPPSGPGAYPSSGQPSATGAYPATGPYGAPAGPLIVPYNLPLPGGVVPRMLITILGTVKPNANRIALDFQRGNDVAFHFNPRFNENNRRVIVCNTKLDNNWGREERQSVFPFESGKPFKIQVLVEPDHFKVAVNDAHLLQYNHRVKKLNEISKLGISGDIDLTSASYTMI
Sequence of Galectin-3 (P17931 whole entry): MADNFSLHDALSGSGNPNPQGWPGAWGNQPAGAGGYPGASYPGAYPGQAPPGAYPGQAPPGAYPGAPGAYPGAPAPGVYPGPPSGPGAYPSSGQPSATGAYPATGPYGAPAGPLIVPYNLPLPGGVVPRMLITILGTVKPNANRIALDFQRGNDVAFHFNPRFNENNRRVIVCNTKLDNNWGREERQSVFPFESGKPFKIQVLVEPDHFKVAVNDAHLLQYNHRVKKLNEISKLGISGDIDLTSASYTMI
T1 sequence (P17931 2-250 limits assumed): as the sequence (P17931 2-250 limits assumed) above

Molecule | Kd (Galectin-3) | Gal3-INSR blocking activity (in words) [1] | blocking of the interaction between GAL3 and ITGb1 [2]
B1 | 2.53 nM | poorly block | –
B2 | – | – | no blocking ability; also recorded: do not disrupt
